Source: PubChem BioAssay AID904 (National Center for Advancing Translational Sciences (NCATS), 2007)
Hit rate of the full screen: of about 55,000 compounds, about 530 (0.96%) were called active. The inconclusive results got no clear call from the source; some entries with a clear call stand among them for comparison. Calls come from the whole dose curve; as a rule, active = well fitted cell-killing curve with a large enough effect; inconclusive = small, poorly fitted or top-dose-only effect; inactive = no such curve, though single readings can be large or run the other way. Where the call is inconclusive, the potency comes from a doubtful curve fit.
Potency is the fitted concentration of half-maximal effect; tags give direction and shape of the fitted curve.

Assay: qHTS Screen for Compounds that Selectively Target Cancer Cells with p53 Mutations: Cytotoxicity of p53 Null Cells at the Nonpermissive Temperature; note: nearly all actives have a fitted effect of over 50% in size;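 for activity, negative = cell killing: 0% = DMSO only and -100% = full killing by 100 µM tamoxifen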
Conditions: H1299 p53-null (neo) cells, 39C, ATPlite viability, 24 h; activity, negative = cell killing: at 46.1 µM (top of the series)
Outline: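 Luminescent ATP signal reported cell survival after H1299 lines (neo, p53 null; or p53 A138V) received up to 46 uM compound and 24 hr incubation at 39C.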
For CCOC(=O)C1=C(CS(=O)(=O)c2ccc(C(C)(C)C)cc2)NC(=O)NC1c1cccc(OC)c1 (configuration not stated), the Potency was inconclusive: 31.6 µM [cytotoxic, single point].
For Cc1nn(S(=O)(=O)c2ccc(F)cc2)c(C)c1S(=O)(=O)N1CCCCC1, the Potency was inconclusive: 0.282 µM [cytotoxic, full curve, poor fit].
With Cc1c(Cl)cccc1NC(=O)C1CCCN(C(=O)c2cnn(-c3ccccc3)c2-n2cccc2)C1 (configuration not stated) the Potency was inconclusive: 0.01 µM [cytotoxic, full curve, poor fit].
In the case of c1ccc(-n2nnnc2-c2cnc(-c3cccnc3)nc2-c2cccs2)cc1, the Potency is reported as inconclusive: 2.51 µM [cytotoxic, full curve, poor fit].
In the case of CC(C)OCCCNc1sc(S(=O)(=O)c2ccccc2)nc1S(=O)(=O)c1ccc(Cl)cc1, the “activity, negative = cell killing” value is reported as inactive: -9.89%.
In the case of COc1ccc(N2CC3=C(C2=O)C(c2ccc(O)c(OC)c2)NC(=O)N3C)cc1 (configuration not stated), the Potency is reported as inconclusive: 31.6 µM [cytotoxic, single point].
With O=C(NCCc1cccs1)c1ccc(Cn2c(SCc3ccccc3)nc3cccnc32)cc1 the Potency was inconclusive: 7.94 µM [cytotoxic, partial curve].
In the case of Cc1nn(CC(=O)NCc2cccc(Br)c2)c(=O)c2c1sc1ccccc12, the Potency is reported as inconclusive: 31.6 µM [cytotoxic, single point].
With CN(C)c1ccc(CNC(=O)CN2C(=O)c3cccnc3Oc3ccc(Cl)cc32)cc1 the “activity, negative = cell killing” value was inactive: -7.59%.
With Cc1nnc(NC(=O)CSc2nc3c([nH]c4ccccc43)c(=O)n2-c2ccccc2)s1 the “activity, negative = cell killing” value was inactive: 6.56%.
For Cc1ccc2sc(N(Cc3cccnc3)C(=O)CCOc3ccccc3)nc2c1C, the Potency was inconclusive: 5.62 µM [cytotoxic, single point].
In the case of COc1cc(C(=O)CC2(O)C(=O)N(Cc3ccccc3Cl)c3ccccc32)cc(OC)c1OC (configuration not stated), the Potency is reported as inconclusive: 35.5 µM [cytotoxic, single point].
In the case of COc1ccc2c(CNCc3ccc(C)o3)c(C(=O)O)n(Cc3ccccc3C)c2c1, the Potency is reported as inconclusive: 5.62 µM [cytotoxic, single point].
In the case of CCN(c1ccccc1)C(CNS(=O)(=O)c1ccccc1)c1ccccc1 (configuration not stated), the Potency is reported as inconclusive: 7.94 µM [cytotoxic, partial curve, poor fit].
In the case of CCn1c(=NC(=O)c2ccc3c(c2)OCCO3)sc2c(C)ccc(OC)c21, the Potency is reported as inconclusive: 10 µM [cytotoxic, partial curve, poor fit].
For CCOc1ccc(-n2nc(CO)c(C(=O)NCc3cccnc3)n2)cc1, the Potency was inconclusive: 15.8 µM [cytotoxic, partial curve].
For CC(C)S(=O)(=O)c1oc(-c2ccc(F)cc2)nc1S(=O)(=O)c1ccccc1, the Potency was active: 3.16 µM.
With Cc1ccc(NC(=O)CSc2c3c(nc4ccccc24)CCCC3)cc1F the Potency was active: 22.4 µM.
For Cc1cccc(NC(=O)c2sc3nc4c(cc3c2N)CCCCCC4)c1C, the Potency was inconclusive: 0.251 µM [cytotoxic, full curve, poor fit].
With Cn1nnnc1SCCNCc1ccc(OCc2ccccc2Cl)cc1 the “activity, negative = cell killing” value was inactive: -14.1%.
In the case of CC(NC(=O)c1ccc(NC(=O)c2nsc3ccccc23)cc1)c1ccccc1 (configuration not stated), the Potency is reported as inconclusive: 6.31 µM [cytotoxic, partial curve].
In the case of Cc1cccc(N(C)C(CNS(=O)(=O)c2ccccc2)c2ccccc2)c1 (configuration not stated), the Potency is reported as inconclusive: 35.5 µM [cytotoxic, single point].
In the case of Cc1nnc(N2CCCC(C(=O)Nc3cccc(C(F)(F)F)c3)C2)c2nn(-c3ccccc3)c(C)c12 (configuration not stated), the “activity, negative = cell killing” value is reported as inactive: -1.51%.
With O=C(Nc1cccc(Cl)c1)c1cc(-c2ccc3c(c2)OCCO3)on1 the Potency was inconclusive: 3.55 µM [cytotoxic, full curve].
For CCCCC(=O)Nc1cc(-c2cn3cccnc3n2)ccc1C, the “activity, negative = cell killing” value was inactive: 16.3%.
In the case of Fc1ccc(NCc2nc3ccccc3n2CCOc2ccccc2Cl)cc1, the Potency is reported as inconclusive: 11.2 µM [cytotoxic, single point].
In the case of Cc1ccc(Nc2c3c(nc4ccccc24)CCC3)cc1F, the Potency is reported as inconclusive: 28.2 µM [cytotoxic, partial curve, poor fit].
For CCc1ccc(NS(=O)(=O)c2ccc3[nH]cc(C(=O)NCCc4ccccc4)c(=O)c3c2)cc1, the “activity, negative = cell killing” value was inactive: -7.33%.
In the case of COc1ccc(-c2noc(CNC(=O)c3ccc(OC)cc3OC)n2)cc1, the Potency is reported as inconclusive: 2.51 µM [cytotoxic, full curve, poor fit].
In the case of O=C(O)c1ccc(CSc2nc3cccnc3n2Cc2cccc(F)c2)cc1, the “activity, negative = cell killing” value is reported as inactive: -10.2%.
For CCCOc1ccc(C(=O)Nc2cccc(NC(=O)c3ccc(Cl)cc3Cl)c2)cc1, the Potency was inconclusive: 31.6 µM [cytotoxic, single point].
In the case of COC(=O)c1ccccc1NC(=O)Cc1nc(-c2ccc(OC)cc2)no1, the Potency is reported as inconclusive: 7.94 µM [cytotoxic, partial curve].
In the case of Cc1nn(CCC(=O)Nc2cccc(C#N)c2)c(C)c1S(=O)(=O)N1CCC(C)CC1, the Potency is reported as inconclusive: 0.0501 µM [cytotoxic, full curve, poor fit].
With CCN(Cc1ccccc1)C(=O)CN1C(=O)COc2ccc(S(=O)(=O)N3CCOCC3)cc21 the Potency was inconclusive: 31.6 µM [cytotoxic, single point].
For CC(Nc1ncnc2c1cnn2-c1cccc(Cl)c1)c1ccccc1 (configuration not stated), the Potency was inconclusive: 15.8 µM [cytotoxic, single point].
For COc1ccc(C2=CC(c3ccc(N(C)C)cc3)n3nnnc3N2)cc1 (configuration not stated), the Potency was inconclusive: 2.24 µM [cytotoxic, full curve].
In the case of CN(C(=O)c1cccc(Nc2ccc(-c3ccc4c(c3)OCCO4)nn2)c1)C1CCCCC1, the Potency is reported as active: 12.6 µM.
For COc1ccc(CSc2nc3ccncc3n2Cc2nc(-c3ccc(OC)c(OC)c3)oc2C)cc1, the Potency was inconclusive: 11.2 µM [cytotoxic, partial curve].
With CCOC(=O)c1c(-c2ccccc2)oc2ccc(NS(=O)(=O)c3ccccc3)cc12 the “activity, negative = cell killing” value was inactive: 81.2%.
With CCS(=O)(=O)N1CCc2cc(C(=O)N3CCN(c4ccccc4)CC3)ccc21 the Potency was inconclusive: 35.5 µM [cytotoxic, single point].
For CC(=O)c1ccc(N2CCN(C(=S)Nc3ccccc3F)CC2)cc1, the activity, negative = cell killing was inactive: 16% [at 1.84 µM].
With CCC(=O)Nc1ccc2nc(SCCOc3cccc(C)c3)sc2c1 the “activity, negative = cell killing” value was inactive: -11%.
With CC1CCN(c2ccc(-c3cccc(NS(=O)(=O)c4ccc(Cl)s4)c3)nn2)CC1 the Potency was active: 10 µM.
With CCOc1cccc(C(=O)Nc2ccc3oc(-c4ccc(C(C)(C)C)cc4)nc3c2)c1 the “activity, negative = cell killing” value was inactive: -6.29%.
For Cc1cccc(Nc2nc(Nc3cccc(C)c3)nc(N3CCOCC3)n2)c1, the “activity, negative = cell killing” value was inactive: 1.62%.
In the case of CC(C)CCNC(=O)c1ccc(Cn2c(=O)c3cccn3c3cccnc32)cc1, the “activity, negative = cell killing” value is reported as inactive: -19.7%.
With O=S(=O)(NCc1ccc(F)cc1)c1ccc2[nH]c3c(c2c1)CCCCC3 the Potency was inconclusive: 15.8 µM [cytotoxic, partial curve, poor fit].
In the case of CCC(=O)Nc1nnc(SCc2cc(=O)c3cc(C)ccc3[nH]2)s1, the “activity, negative = cell killing” value is reported as inactive: 15%.
In the case of CCOc1ccc(-c2nonc2NC(=O)c2oc3ccc(Br)cc3c2C)cc1, the Potency is reported as inconclusive: 31.6 µM [cytotoxic, single point].
For CCc1ccc(OC(C)C(=O)N2CCC(c3nc4ccccc4s3)CC2)cc1 (configuration not stated), the Potency was inconclusive: 12.6 µM [cytotoxic, partial curve, poor fit].
In the case of COc1ccc(Cl)cc1NC(=O)CCS(=O)(=O)c1nc(-c2cccs2)cc(C(F)(F)F)n1, the Potency is reported as inconclusive: 15.8 µM [cytotoxic, single point].
In the case of Cc1ccc(-n2nc(CO)c(C(=O)NCc3ccccn3)n2)cc1C, the Potency is reported as inconclusive: 31.6 µM [cytotoxic, single point].
With CCOC(=O)c1cnc2ccc(OC)cc2c1NCCc1ccccc1 the Potency was inconclusive: 22.4 µM [cytotoxic, single point].
In the case of Cc1c(Cl)cccc1-c1ccc(C(=O)Nc2ccc(F)cc2)o1, the Potency is reported as inconclusive: 35.5 µM [cytotoxic, single point].
For COc1ccccc1OCC(=O)NCC(c1ccc(Cl)cc1)N1CCCCC1 (configuration not stated), the “activity, negative = cell killing” value was inactive: -3.17%.
In the case of CCN(C(=O)C1CCN(S(=O)(=O)c2ccc3c(c2)CCCN3C(C)=O)CC1)c1cccc(C)c1, the “activity, negative = cell killing” value is reported as inactive: 21.9%.
In the case of CC(=O)c1cccc(NC(=O)c2sc(-n3nc(C)c(Cc4ccc5c(c4)OCO5)c3C)nc2C)c1, the activity, negative = cell killing is reported as inconclusive: -33.6% [cytotoxic].
For Cc1ccc(NS(=O)(=O)c2cc(Br)cc3c2N(C(=O)C2CC2)CC3)cc1C, the “activity, negative = cell killing” value was inactive: -8.05%.
In the case of Cc1cc(NC(=O)c2ccc3c(c2)OCO3)ccc1NC(=O)c1ccco1, the Potency is reported as inconclusive: 12.6 µM [cytotoxic, partial curve].
In the case of Cn1c(NCCO)nc2c1c(=O)n(Cc1ccccc1Cl)c(=O)n2C, the Potency is reported as inconclusive: 0.0251 µM [cytotoxic, full curve].
In the case of CCOC(=O)c1cccc(Nc2c3c(nc4ccccc24)CCC3)c1, the Potency is reported as inconclusive: 17.8 µM [cytotoxic, partial curve].
With Cc1cccc(NC(=O)c2c(NC(=O)C(F)(F)F)sc3c2CCCCC3)c1 the Potency was inconclusive: 2.51 µM [cytotoxic, full curve, poor fit].
For CCc1ccc(CNCc2c(C(=O)O)n(Cc3cccc(F)c3)c3cc(OC)ccc23)cc1, the Potency was inconclusive: 12.6 µM [cytotoxic, partial curve].
For Cc1ccc(NC(=O)CSc2nc3ncccc3[nH]2)cc1F, the “activity, negative = cell killing” value was inactive: -10.3%.
With COc1ccc(OCCn2cc(C(=O)C3CCCCC3)c3ccccc32)cc1 the “activity, negative = cell killing” value was inactive: -24.1%.
In the case of Cc1ccc(S(=O)(=O)Cc2nc(-c3ccc(C(=O)NCc4ccccc4)cc3)oc2C)cc1, the “activity, negative = cell killing” value is reported as inactive: 28.6%.
In the case of CCOC(=O)CN1C(=O)C(O)(CC(=O)c2cc(OC)ccc2OC)c2ccccc21 (configuration not stated), the “activity, negative = cell killing” value is reported as inactive: 6.24%.
